Columns and labels:
SN12L1 metastatic ccRCC = SN12L1 metastatic ccRCC model; type: in vivo; settings: 5 mg/kg i.p. twice weekly for 8 weeks
Method: The present inventors evaluated AVB-S6-500 in a SN12L1 metastatic ccRCC model. Following injection of tumor cells, mice were divided into two treatments groups: control and 5 mg/kg intraperitoneal (i.p.) AVB-S6-500. Treatments began 7 days post inoculation and occurred twice weekly for 8 weeks.

[1] = Phase 1b in platinum-resistant, recurrent ovarian cancer patients; type: in vivo, human
Method: The present inventors are currently evaluating AVB-S6-500 in the Phase 1b portion of a P1b/2 randomized, controlled study in combination with either pegylated liposomal doxorubicin (PLD) or paclitaxel in patients with platinum-resistant, recurrent ovarian cancer. […] Higher dose levels of AVB-S6-500 (15 mg/kg and 20 mg/kg) are being enrolled (in combination with paclitaxel and PLD) in Phase 1b expansion cohorts to determine the optimal recommended Phase 2 dose.

[2] = PK and toxicokinetics following single and repeat dosing; type: in vivo, cynomolgus monkey
Method: (§1) The present inventors have previously evaluated PK and toxicokinetics (TK) of AVB-S6-500 and concentrations of GAS6 (PD) in mice (intraperitoneal and i.v. routes) and monkeys (i.v. route) following single and repeat dosing. […] At low doses in the cynomolgus monkey (below 5 mg/kg), clearance is high and half-life is short, but at doses above 5 mg/kg, clearance is lower, half-life is longer, and volume of distribution is larger. Using the TMDD model (Dirks, N., Clinical Pharmacokinetics, 633-659, 2010), the human dose estimated to be efficacious may range from 1 mg/kg (to ensure GAS6 levels remain at least 90% less than baseline) to 20 mg/kg (to ensure 99% abrogation of GAS6 and allowing for a three-fold increase in GAS6 levels in cancer patients relative to normal levels).

GAS6 [3] = target: T1, GAS6 (Homo sapiens, UniProt Q14393); test: human efficacious dose estimated with TMDD model; design: allowing for a three-fold increase in GAS6 levels in cancer patients relative to normal levels
T1 sequence (Q14393 31-678): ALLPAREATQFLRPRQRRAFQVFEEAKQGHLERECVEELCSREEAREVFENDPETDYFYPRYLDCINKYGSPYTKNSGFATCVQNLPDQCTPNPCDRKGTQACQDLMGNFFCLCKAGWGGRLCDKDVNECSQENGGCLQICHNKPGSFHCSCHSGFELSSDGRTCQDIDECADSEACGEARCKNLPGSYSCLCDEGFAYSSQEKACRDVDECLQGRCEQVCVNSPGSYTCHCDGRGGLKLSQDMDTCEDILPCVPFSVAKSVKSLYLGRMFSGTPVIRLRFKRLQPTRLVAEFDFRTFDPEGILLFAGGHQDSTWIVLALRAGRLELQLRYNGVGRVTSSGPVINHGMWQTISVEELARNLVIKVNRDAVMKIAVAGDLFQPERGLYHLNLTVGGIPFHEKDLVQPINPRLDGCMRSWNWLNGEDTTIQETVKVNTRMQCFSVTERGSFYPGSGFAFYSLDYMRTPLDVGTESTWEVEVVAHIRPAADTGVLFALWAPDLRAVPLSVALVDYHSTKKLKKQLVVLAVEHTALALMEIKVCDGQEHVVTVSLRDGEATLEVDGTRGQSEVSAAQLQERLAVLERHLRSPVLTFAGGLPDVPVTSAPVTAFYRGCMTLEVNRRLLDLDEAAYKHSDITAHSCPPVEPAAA
Method: as §1

metastatic disease = test: preclinical models of aggressive human cancers; type: in vivo
[4] = 3-month GLP cynomolgus monkey study; type: in vivo
From the text: The non-dose dependent clinical pathology changes seen are consistent with an immune response in monkeys to the human AVB-S6-500 protein.

[5] = Phase 1 Single Ascending Dose and Repeat Dose study in healthy volunteers; type: in vivo
Method: The present inventors previously evaluated AVB-S6-500 in a single-blind, placebo-controlled, first-in-human, Phase 1 Single Ascending Dose (SAD) and Repeat Dose (RD) study in healthy volunteers. Single dose cohorts of 1, 2.5, 5, and 10 mg/kg were evaluated as well as one RD cohort dosed with 5 mg/kg once weekly for four weeks. Subjects were treated with either Placebo (normal saline) or AVB-S6-500 given as i.v. infusions over 60 minutes.

highly metastatic cells = test: AXL signaled invasion and migration in vitro; type: cell-based
GAS6 [6] = target: T1, GAS6; test: binding affinity to GAS6
[7] = test system: ccRCC patient derived xenograft; test: patient derived xenograft (PDX) model for ccRCC; type: in vivo, mice; settings: in combination with pazopanib
Method: AVB-S6-500 was also evaluated in a patient derived xenograft (PDX) model for ccRCC, where mice were treated with vehicle, AVB-S6-500 and pazopanib, or a combination of AVB-S6-500 and pazopanib.

[8] = cynomolgus monkey, doses above 5 mg/kg
[9] = cynomolgus monkey, low doses (below 5 mg/kg)

B1: AVB-S6-500: soluble AXL polypeptide fusion protein comprising an Fc domain, a linker, lacks a functional FN domain, amino acid sequence SEQ ID NO: 2 (protein)
chain: EESPFVSNPGNITGARGLTGTLRCQLQVQGEPPEVHWLRDGQILELVDSTQTQVPLGEDEQGDWIVASQLRITSLQLSDTGQYQCLVFLGHQTFVSQPGYVRLEGLPYFLEEPEDRTVAANTPFNLSCQAQGPPEPVDLLWLQDAVPLATAPGHGPQRSLHVPGLNKTSSFSCEAHNAKGVTTSRTATITVLPQQGGGGS[human IgG1 Fc not printed]
modifications: soluble AXL polypeptide-Fc fusion
- toxicity as assessed by bodyweight and clinical observation (SN12L1 metastatic ccRCC): no overt toxicity
- lung tumor burden (SN12L1 metastatic ccRCC; relative to control group): significant reduction
- dose limiting toxicities ([1]; 10 mg/kg q2w with PLD or paclitaxel, 40 patients): no dose limiting toxicities
- PK ([1]; platinum-resistant ovarian cancer patients): consistent with target-mediated drug disposition (TMDD)
- exposure-response relationship ([1]; preliminary data from Phase 1b): potential exposure-response relationship
- clearance [2, 8]: lower
- half-life [2, 8]: longer
- volume of distribution [2, 8]: larger
- clearance [2, 9]: high
- half-life [2, 9]: short
- PK profile ([2]; mice (i.p. and i.v.) and monkeys (i.v.), single and repeat dosing): compatible with target-mediated drug disposition (TMDD)
- human dose estimated to be efficacious (upper end) (GAS6 [3]; to ensure 99% abrogation of GAS6, allowing three-fold increase in GAS6 in cancer patients): 20 mg/kg
- human dose estimated to be efficacious (lower end) (GAS6 [3]; to ensure GAS6 levels remain at least 90% less than baseline): 1 mg/kg
- metastatic disease (metastatic disease): inhibiting metastatic disease
- mortalities ([4]; doses up to 150 mg/kg/dose): no mortalities
- NOAEL ([4]; once weekly 30-minute i.v. infusion, 3 months): at least 150 mg/kg/dose
- dose-related adverse events ([5]; healthy volunteers, all doses): no dose-related adverse events
- serious adverse events ([5]; healthy volunteers, all doses): no serious adverse events
- maximum tolerated dose ([5]; healthy volunteers, up to 10 mg/kg): not reached
- tolerability ([5]; single 1, 2.5, 5, 10 mg/kg, 5 mg/kg weekly for four weeks, i.v. infusion over 60 minutes): well tolerated at all doses
- AXL signaled invasion and migration (highly metastatic cells): dramatically reducing AXL signaled invasion and migration
- apparent affinity to GAS6 (GAS6 [6]): 93-324 femtomolar
- higher affinity to GAS6 than wild-type (WT) AXL (GAS6 [6]; relative to wild-type AXL): approximately 200 fold
- specific growth rate of tumors [7]: significantly reduced
- weight of tumors [7]: significantly reduced

Source: patent publication US20230084893A1, “METHODS OF TREATING CLEAR CELL RENAL CELL CARCINOMA (ccRCC) USING AXL DECOY RECEPTORS” (Aravive Inc, priority 2020, published 2023)
